# Data taken from PubChem BioAssay AID1347073 (National Center for Advancing Translational Sciences (NCATS), 2019).
# In all, about 45,000 compounds went through this assay and about 200 (0.44%) were called active. Another 7% or so got no clear call; they are omitted. The call rests on the fitted dose curve; in most records, active means well fitted activation curve with a large enough effect; inconclusive means small, poorly fitted or top-dose-only effect; inactive means no such curve, though single readings can be large or run the other way. Some of the results follow.
# Test: qHTS of TDP-43 Inhibitors: NCGC Sytravon Library Screen; further: 0% is about no effect; nearly all actives have a fitted effect of over 55% in size
# Settings: yeast TDP-43 toxicity rescue, BacTiter-Glo growth, 24 h; series mostly up to 46.1 µM; growth rescue (activation): at the top concentration
# In short: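 TDP-43-expressing yeast, pregrown in raffinose, seeded at OD600 0.02 in galactose medium with compound for 24 hr at 30 deg C. Growth read by BacTiter-Glo luminescence, so rescue of toxicity appears as activation.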
row,SMILES,growth rescue (activation)
1,COc1ccc(/C=N/NC(=O)CN2CCSCC2)c(OC)c1,inactive: 5.33%
2,CCCSc1ccc(C(=O)Nc2ccc(F)cc2F)cn1,inactive: 24.1%
3,Cc1cc(C)n(C(=O)CNC(=O)c2cccc(Cl)c2)n1,inactive: -16.8%
4,N/C(=N\NC(=O)c1sccc1OCc1ccc(Cl)cc1Cl)c1ccccn1,inactive: 13.2%
5,CC(Oc1cccc(Cl)c1)C(=O)NCCCCc1ccccc1 (centres undefined),inactive: 4.43%
6,C/C(=N/NC(=O)c1ccc2nc[nH]c2c1)c1cccs1,inactive: 14.6%
7,COC(=O)c1c(NC(=O)C2CC2)sc(C(=O)Nc2ccccc2)c1C,inactive: 25.2%
8,COc1ccc(/C=N/n2cnc3scc(-c4cccs4)c3c2=O)cc1OC,inactive: 12%
9,Cc1ccc(-n2c3nc(=O)n(C)c(=O)c-3cc3ccccc32)cc1,inactive: -1.04%
10,Cc1ccccc1N1CCN(C2CCCN(C(=O)c3cc(C(C)C)[nH]n3)C2)CC1 (centres undefined),inactive: -7.1%
11,CCN(CC)CCn1c2ccccc2c2nc3ccc([N+](=O)[O-])cc3cc21,inactive: -1.57%
12,O=C(c1ccco1)N1CCN(C(=O)C2CC(=O)N(c3ccc(Cl)cc3)C2)CC1 (centres undefined),inactive: -18.2%
13,Cc1cc(NS(=O)(=O)c2ccc(NC(=O)CSc3nnc(-c4ccco4)n3C)cc2)nc(C)n1,inactive: -2.6%
14,Cc1ccc(CSc2ncnc3c2cnn3-c2ccccc2)cc1,inactive: 4.5%
15,O=C(NNC(=O)C1CCCN(S(=O)(=O)c2ccc3ccccc3c2)C1)C1CC1 (centres undefined),inactive: -4.01%
16,COCc1cccc(-c2csc(C(C)(NC(C)=O)c3ccccc3)n2)c1 (centres undefined),inactive: 3.93%
17,O=C(Nc1ccc2c(c1)OCO2)C1Cc2c(-c3ccncc3)ccnc2O1 (centres undefined),inactive: 8.23%
18,CSCCC(NC(=O)c1cccc(C)c1)C(=O)Nc1sccc1C(N)=O (centres undefined),inactive: 0.336%
19,COc1ccc(CCNC(=O)/C=C\c2ccccc2)cc1OC,inactive: -0.703%
20,CCSc1ncc(Cl)c(C(=O)Nc2c(C(=O)Nc3cccc(C)c3)oc3ccccc23)n1,inactive: -10.2%
21,COCCn1cnnc1SCC(=O)Nc1cc(C)on1,inactive: 5.65%
22,CCc1nc2ccccc2c(C(=O)OCc2nc3ccccc3c(=O)[nH]2)c1C,inactive: 14.7%
23,COc1ccc(N2CCN(c3nc4c(C)cccn4c(=O)c3C=C(C#N)C#N)CC2)cc1,inactive: 12.2%
24,CCCc1nnc(SCC(=O)N(CC)CC)n1CC1CCCO1 (centres undefined),inactive: 3.66%
25,CCNC(=O)C1(C)CCCN1C(=O)c1ccc(-c2ccccc2)cc1 (centres undefined),inactive: 6.47%
26,CN1CCCN(C(=O)c2cc(-c3ccc(Cl)c(Cl)c3Cl)nc3ccccc23)CC1,inactive: 6.46%
27,COc1ccc(S(=O)(=O)N2CCC(C(=O)N3CCC(C(N)=O)CC3)CC2)cc1Cl,inactive: 6.74%
28,Cc1cc(C)cc(NC(=S)N2CCC(NC(=O)C3CC3)CC2)c1,inactive: -3.32%
29,CC(=O)c1ccc(OCc2nnn(CC(=O)O)c2-c2ccccc2)cc1,inactive: 17.2%
